In publication PMC10726135:
This is one part of the list. At the low end of the ranking the order means little. Measured with an extract: partners may take part in the binding.

What follows are sequences tested against T1, HNF4alpha2 (COS-7 nuclear extract) (UniProt P41235) (assay: protein-binding microarray). Settings: COS-7 nuclear extract on double-stranded Agilent 4x180k PBM; binding buffer, salt, pH and temperature not given; high values mean tight binding; double strand, one strand shown; sequences stand for … in …GCCTAGGGAGATTAGAGTATCGGTCGA.
T1 sequence: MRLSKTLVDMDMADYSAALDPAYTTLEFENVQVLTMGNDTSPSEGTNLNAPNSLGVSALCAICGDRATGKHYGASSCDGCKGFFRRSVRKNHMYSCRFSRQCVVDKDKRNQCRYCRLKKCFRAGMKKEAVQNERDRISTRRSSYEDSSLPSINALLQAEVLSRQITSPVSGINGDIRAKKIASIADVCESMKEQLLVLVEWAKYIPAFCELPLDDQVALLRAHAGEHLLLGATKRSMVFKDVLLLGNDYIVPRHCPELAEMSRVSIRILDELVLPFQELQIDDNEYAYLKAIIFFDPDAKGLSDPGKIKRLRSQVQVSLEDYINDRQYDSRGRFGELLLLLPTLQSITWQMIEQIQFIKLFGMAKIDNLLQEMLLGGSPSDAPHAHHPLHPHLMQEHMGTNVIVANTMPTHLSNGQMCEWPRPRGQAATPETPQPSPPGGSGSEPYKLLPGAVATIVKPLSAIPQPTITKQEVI

Sequence | binding signal (log2 normalized intensity)
AGGAATTTTAAAAGTATACTATATTTGTCC | -0.378
ATGTTTGCCGACCTCCTGACTAAAGTTCAT | 2.65
ATCAGTATCCCAGTTCTGGATACTGATTAC | -1.02
AGGGATCTTTGCACTTGATGTTCCCCCTCC | 4.32
GGGCAAGAAAGGGGTCAGCAAAAATAGCCA | -1.17
CCTTGCCTTAAGAGCAGTCTGCTCAAGTCT | -1.05
TGGCACACAGAGGACGTCAGGCAGAGAGGG | -1.25
CTGATGGCTGCTTCACACAAACATCACCTA | -0.966
CGGGTCACGTGCCGCTGCGGGTCACGTGTC | 1.44
AGCATCCCTCGGGCCGGGAAACGCCCTCGG | 0.417
GTAAGTATGCTCACTGACCTCTGCCCTACT | 4.35
ACTACCCCTGCCTAAACAAGGCAGACTTGG | -0.64
AACTTCCTCCTCCTTGGCTCTCCCCACTTA | 2.75
CCTCCAACTATGCTAAGAATGCGAACCATT | -1.08
GCGCGGGGCGCCTCCCGGAGGACCCGACCG | -1.15
GACTTGACAAAGGTCATTCATGTGCAGGTT | 3.04
AAGGAATTTACTGCAGTCAGGGGTTAGGCC | 0.068
CCCAAATGCAAACAGCAGCCACATTCCATG | -1.1
AAGGTCAGCAAGCCTGGAGTTCTGATGTTC | 0.534
CTGGTGATCTTTGTTAGACCCTTATCAGTA | 1.82
AATAATCTGGCATAGGAACAAAGGTTGGTG | 2.24
CAGTGGAATCTACAGAATTCTCATGGAGGA | -0.206
ACAGTTCTGATACATTGGACAACTGTACTT | 2.1
TTTCTGTCCAGAGTTTAAATGACCTCTGCC | 3.88

Sequence | binding signal (log2 normalized intensity)
CATTTTTGACCTTCAGCATCTTCAACTGTG | 3
GTTCAGCGCGTCTTAGCACTCACCCAATAA | -0.875
TATGCTGGCAGTAGGGAGGTTTGGGGTTAT | 0.621
CTTCTCTTGTTTGTGTAACTGTGGGTTCTA | 1.97
ACCATTAGGGGGCAATTTCCCTGGTCGACC | 1.54
GTGACTTGATCTTTGACTGGATTCTCAGCC | 0.789
ATAGGTCAGAGGACACCCGGGGTGGGCATT | 0.737
ACTGAATCACACTACTGGCTTTTCTGGTTC | -1.02
GAATTGTGATAATAAATGTGTTTCATCAGT | 1.47
GGTTGCACTCTGGTGCCCTCTGAGTGTTTG | 1.88
AGGCAAGAGCTCAGAAGCCACCAGTGCAAA | -1.17
GCTTCAAAGGTCACTGTCCTAATTTTTTTT | 2.39
TCAGTGGGCTAAACATCAAGACAGGTGAGA | -1.08
ATTGACTCTTCGTTTTCTTTTTAGTTTACA | 0.888
ATGCTTCAAATATTTGGATAATGTGCCCTT | 3.48
GGTGCTGATGTTAACACAAGTTATTACCGT | 1.03
CTAACCCAAATGCAAATACCTATAGACCTG | -1.12
CTTATCAGCCCCCATGTCAGGGAAGGTGCC | 2.52
AGGTGACCTTTGCTCCGGTTCCCAATAAGT | 5.06
TAAACATTCCCCTTTGTCTAAGCTAGTCAT | 0.296
GACAGCCACACTTTAATGTGGAGTAGACTA | -0.927
CCCGGAGCGGAGCATCCCTCGGGCCGGGAA | -0.949
CTGCTTCAGTTTTGCCATCAGCTCCCTCCC | 3.05
AAATTGTGATAACCCCTATGTCTTCAGACT | 1.65

Sequence | binding signal (log2 normalized intensity)
GGAAAATTACCAATGAGAAACCTCAAAGGT | -1.04
TGTGTCTGTTTACCCACTTGGGGTTCTTGG | 1.71
GTTCCAGTTATGTTCTCTGTACGGAAGGCC | 0.823
AATCTTATTTTTACTATGTGGCATTTAGAA | 1.56
AGCATAGAAGTAAGAAATCAGGAGCAAAGG | -0.804
CTTACGAAGATAAATCAGAAGAAAAAGGTA | -1.07
GGAGATAAAGCAGAGGGCTGCTTGCAGGAG | -1.12
GACATAACACAGGTGACCTTTGCTCCGGTT | 7.4
GATAAGCGTATTTCAACCTTTGATCTATAA | 5.94
GAATTTTTCCCCTAGTTACAACTGTAAACA | 1.21
GCCTGGGCGCGCCTGCCCTTCGCTCCCCGA | 1.93
CACCTCTGCTTATCTCAACTGATTTACCTC | 0.784
AGAGGCTCCAGAAGGAATGCAGCCCTGTTG | -1.01
GGCAGGCTTCGAAAAATGGGTCTGGGATGT | 0.813
TGAGTATGAGTAGGCTGTAGAGGAGATGTG | 1.21
ATATTCTGAGACAACACTCAGGATACCTAA | -1.14
CTTTATCCAAATAACCATGCTCAACATCAA | -0.712
CACTGCTTTGAAAAAACCTGTTCAGCCAGA | -1.23
ATGGAGTGCTCTGAACCGTGTACCTGGGGC | 0.442
AGCTGTGCGCTTAGTCCATGACGCAAGCGA | -1.14
TCTCAGCCGCGCGGCTTCAGAGGCCAGCAG | -1.17
CCAACTAGAATGGAACTGAAGGCAGGAAAG | -1.13
TTACCCTGCAGTGTGACCTTTGCCTTCTTG | 7.49
ATTCCCGCCGCCTCCGCTGGGGGACGCGAC | -1.21
